Source: publication PMC12136788
This is one part of the list.

B1: chr19:45711045:45711146:-|3pUTR|ENSG00000177051|msi1|total|mutant (ssRNA)
RNA: GGGAGUUCUACAGUCCGACGAUCGAAUUGGGGGCUGUCAGGUCACAGGUGGGAUCUGGCAUUUUUUUAUGACAGUCCAUUUCCCGAUGGUUUGCCUAUUAAAGAAGUGGGGGGGAAAUACUGUUUUCUCCUUAACCUCAAGCUCAACAGAGGAUUGAGCAUCA
B2: chr16:87831719:87831834:-|3pUTR|ENSG00000103257|msi1_unk|FALSE|overlapping (ssRNA)
RNA: GGGAGUUCUACAGUCCGACGAUCCCUGCGUUUGGAGGCCCCUGGGCUCUCACCCAGUCCCCACCCGCCUGCAGAGAGGGAACUAGGGCACCCCUUGUUUCUGUUGUUCCCGUGAAUUUUUUUCGCUAUGGGAGGCAGCCGAGGCAACAGAGGAUUGAGCAUCA
B3: chr1:36287001:36287112:+|CDS|ENSG00000054118|unk|FALSE|unique (ssRNA)
RNA: GGGAGUUCUACAGUCCGACGAUCCCCCUCCAGUCUGUGGUGGUGAGGCGGCGGUCACCCCGUCCUAGCCCCGUGCCAAAACCUAGUCCUCCACUUUCCAGCACAUCCCAGAUGGGCUCAACUCUGCCGAGUGGUGCCGGGUAUCAACAGAGGAUUGAGCAUCA
B4: chr1:67003359:67003460:-|3pUTR|ENSG00000116704|msi1|total|mutant (ssRNA)
RNA: GGGAGUUCUACAGUCCGACGAUCACUCAAAAGCCGCAAAUCUGUAAAUUGGAUUAAGAACACCUGCCCUACCUACCCGGCAACCGUGUGAAUCCAAAUGCUGCAAUGUGAGAUGAGGUACAAGUAAAGAGCUGUGUUUUGUAACAACAGAGGAUUGAGCAUCA
B5: ENSG00000070961:be:win_3851|3pUTR|ENSG00000070961|bound_else_gene|NA|bound_elsewhere_windowed (ssRNA)
RNA: GGGAGUUCUACAGUCCGACGAUCUUUUUGGGGGGUGGGAGAAAUGAACUGACAGAUAAACAGUAACUCAGCGUAAGUGACCUGUGGAUCAUCAGUAGUACCCAAGCAUGGUCCUGAACAGUGUAUUAGCAGAGCUUUAGUUUACAACAGAGGAUUGAGCAUCA
B6: chr11:60923185:60923286:+|3pUTR|ENSG00000110108|msi1|FALSE|unique (ssRNA)
RNA: GGGAGUUCUACAGUCCGACGAUCCAGAGAGCAGGGUGAGCUGCCAGCUGCCCCUCUCCACCAGGGUACCCUGUCUUGGUGGUUAGGGGCCACUUUUCCUUUGAGGCUCUAGUGGAGGUGGAUGUCCUUCUCUGCCAGGCUUGGCAACAGAGGAUUGAGCAUCA

molecular target: MSI1 full-length (mouse, UniProt Q61474 1-362); test: nsRBNS (natural sequence RNA bind-n-seq); RBNS binding buffer (assumed for nsRBNS): 25 mM Tris pH 7.5, 150 mM KCl, 3 mM MgCl2, 0.01% Triton X-100, 500 ug/ml BSA, 20 U/ml SUPERase-In, 4 C; UNK is unkempt and MSI1 is Musashi-1; names of the RNAs are library labels; protein concentration not given here; high values mean tight binding
Sequence of UniProt Q61474 (Q61474 whole entry): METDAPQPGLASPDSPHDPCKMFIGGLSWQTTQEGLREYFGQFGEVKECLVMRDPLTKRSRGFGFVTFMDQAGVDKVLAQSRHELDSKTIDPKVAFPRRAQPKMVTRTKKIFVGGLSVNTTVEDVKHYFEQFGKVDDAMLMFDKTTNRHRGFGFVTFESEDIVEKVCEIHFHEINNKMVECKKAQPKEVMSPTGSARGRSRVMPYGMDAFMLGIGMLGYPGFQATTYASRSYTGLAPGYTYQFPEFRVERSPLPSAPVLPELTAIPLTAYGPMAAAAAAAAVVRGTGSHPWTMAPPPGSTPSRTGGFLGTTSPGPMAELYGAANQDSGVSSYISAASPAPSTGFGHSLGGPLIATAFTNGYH

| Binder | binding signal [enrichment R] |
| --- | --- |
| B1 | 0.378 |
| B2 | 0.371 |
| B3 | 0.473 |
| B4 | 0.583 |
| B5 | 3 |
| B6 | 0.389 |
